From PubChem BioAssay AID651820 (National Center for Advancing Translational Sciences (NCATS), 2012)
Values joined by “and” are separate entries in the source; they are usually repeats but may differ in a detail not shown here. Identical values can stand only once. Out of some 340,000 compounds screened, about 12,000 (3.5%) were called active. The inconclusive results got no clear call from the source; some entries with a clear call stand among them for comparison. Calls come from the whole dose curve; as a rule, active = well fitted inhibition curve with a large enough effect; inconclusive = small, poorly fitted or top-dose-only effect, or another doubt; inactive = no such curve, though single readings can be large or run the other way. Where the call is inconclusive, the potency comes from a doubtful curve fit.

Test: qHTS Assay for Inhibitors of Hepatitis C Virus (HCV)
Details: Huh7.5.1 HCVcc-Cre (HCVcc is cell-culture hepatitis C virus) infection, luciferase reporter, 44 h; activity change, negative = inhibition: at 41.8 µM (top of the series) unless noted
In short: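 After 44 h co-culture of compound, cells and HCVcc-Cre (~0.5 moi), substrate is added for 15 min at room temperature and luciferase measured over 15 sec. Cells were seeded at 1,000/well and pre-cultured 4 h.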
% is set by controls: 0 for no effect and ±100 for the full control effect; potency is the fitted concentration of half-maximal effect; tags give direction and shape of the fitted curve.

Row | Structure (SMILES) | activity change, negative = inhibition | Potency
1 | Cc1ccc(C2=CSC3=NCCN23)c(C)c1 | inactive: -13.4% | –
2 | Cc1ccc(NC(=S)N/N=C/c2c(C)nn(-c3ccccc3)c2N2CCCC2)cc1 | – | inconclusive: 0.501 µM [inhibitor, full curve, poor fit]
3 | O=C(CCl)NC1CCCc2ccccc21 (configuration not stated) | inactive: 13.4% | –
4 | Cc1ccc(CN2CCN(C(=O)c3cccc4ccccc34)CC2)cc1 | – | inconclusive: 15.8 µM [inhibitor, single point]
5 | COc1cc([C@@H]2[C@H]3CN(C)CC=C3C(C#N)=C(N)C2(C#N)C#N)cc2c1OCO2 | – | inconclusive: 22.4 µM [inhibitor, single point]
6 | O=C(CCNC(=O)c1ccco1)Nc1ccc(Cl)c(C(F)(F)F)c1 | inactive: 12.8% | –
7 | O=C(OCc1nc2ccccc2s1)c1ccc(Br)s1 | inactive: 9.84% | –
8 | COc1ccccc1C(=O)NC(=S)Nc1ccc(N2CCN(C(=O)c3ccco3)CC2)cc1 | – | active: 31.6 µM
9 | COc1ccc(S(=O)(=O)N2c3ccccc3OCC2c2ccccc2)cc1 (configuration not stated) | – | inconclusive: 20 µM [inhibitor, single point]
10 | COCCNC(=O)c1ccc2c(c1)S(=O)(=O)c1cc(Cl)ccc1C2=O | – | inconclusive: 31.6 µM [inhibitor, single point]
11 | CCc1cc(Cn2nc(-c3ccccc3)cc2C(=O)NCCOC)on1 | inactive: 0.193% | –
12 | Oc1ccc(CCNc2c3ccccc3nc3ccccc23)cc1O | inactive: -28% | –
13 | COCCNC(=S)Nc1cccc2cnccc12 | – | inconclusive: 31.6 µM [inhibitor, single point]
14 | COc1cc(NC(=O)C2CCCCC2)c(OC)cc1NC(=O)CN1CCCCC1 | – | inconclusive: 0.891 µM [inhibitor, full curve]
15 | COc1ccc2c(c1)C(C)=CC(C)(C)N2C(=O)CNCc1ccc2c(c1)OCO2 | – | inconclusive: 31.6 µM [inhibitor, single point]
16 | COc1ccccc1N1CCN(c2nc(C)nc3c2oc2ccccc23)CC1 | – | active: 3.55 µM
17 | O=C(CCN1CCc2ccccc2C1)c1ccc2c(c1)OCCO2 | – | active: 10 µM
18 | CCOC(=O)N1CCC(NC(=O)CSCc2nc(-c3cccc(OC)c3)oc2C)CC1 | – | inconclusive: 11.2 µM [inhibitor, partial curve] and inconclusive: 25.1 µM [inhibitor, single point]
19 | O=C(NC1CC1)c1sc2cc(F)ccc2c1Cl | inactive: -14.5% | –
20 | CC(/C=C/c1ccccc1)=N\NC(N)=S | – | active: 15.8 µM
21 | OCCN(Cc1ccccc1)c1ncnc2sccc12 | – | inconclusive: 31.6 µM [inhibitor, single point]
22 | CCOC(=O)c1c(NC(=O)CSc2nnc(CNc3ccc(C)cc3C)o2)sc(C)c1C | – | inconclusive: 5.62 µM [inhibitor, full curve]
23 | O=C(NCc1ccccc1)c1ccc(Cl)cc1 | inactive: -7.1% | –
24 | O=C(CCc1nnc(CCCCc2ccccc2)o1)N1CCCC(O)C1 (configuration not stated) | inactive: -4.62% | –

Row | Structure (SMILES) | activity change, negative = inhibition | Potency
25 | CCOc1cc(/C=C2/NC(=O)N(Cc3ccccc3F)C2=O)ccc1O | – | active: 10 µM
26 | CCN1CCN(C(=O)c2ccc(Cl)c(S(=O)(=O)N3CCCCCC3)c2)CC1 | – | inconclusive: 31.6 µM [inhibitor, single point]
27 | CCN(CC)C(=O)[C@H]1C[C@H](CC(=O)NC/C=C(\C)CCC=C(C)C)C(=O)N2CCc3c([nH]c4cc(-c5ccco5)ccc34)[C@]12C | inactive: -0.635% [at 8.37 µM] | –
28 | CCOC(=O)N1CCN(S(=O)(=O)c2ccc(C(=O)N(CCCN(C)C)c3nc4ccc(Cl)cc4s3)cc2)CC1 | – | active: 11.2 µM
29 | Cc1cc(N2C(=O)CC(N3CCN(C(c4ccccc4)c4ccccc4)CC3)C2=O)no1 (configuration not stated) | – | inconclusive: 31.6 µM [inhibitor, single point]
30 | Cc1ccc(/C=N/Nc2ccnc3cc(Cl)ccc23)c(C)c1 | – | active: 10 µM
31 | Cc1cccc(-c2nnc(SCc3ccccc3)o2)c1 | inactive: -29.8% | –
32 | CCN(CC)C(=O)CSc1nc2ccccc2c(=O)n1CCC(=O)NCc1ccc(F)cc1 | – | inactive and inconclusive: 501 nM [inhibitor, full curve, poor fit]
33 | COc1ccc(C)cc1NC(=O)Nn1cnnc1 | inactive: 3.29% | –
34 | NC(=O)CSc1nnc(Cc2csc(Nc3ccc(F)cc3)n2)n1Cc1ccccc1 | – | inconclusive: 28.2 µM [inhibitor, single point]
35 | CC(=O)N/C(=C\c1ccccc1)C(=O)OCC(=O)NC1CCCC1 | inactive: 5.49% | –
36 | O=C(CCCN1C(=O)[C@H]2CC=CC[C@H]2C1=O)NCc1nc(-c2ccc(Cl)cc2)no1 | inactive: -0.929% | –
37 | CN=C1S/C(=C\c2ccc(O)c(OC)c2)C(=O)N1C | inactive: -18.9% | –
38 | Nc1c(C(=O)c2ccccc2)sc2nsc(SCCN3CCCC3)c12 | – | inconclusive: 3.55 µM [inhibitor, full curve]
39 | Cc1ccccc1NC(=O)c1c(C)nc(SCC(=O)OCc2ccccc2)c(C#N)c1-c1ccc(F)cc1 | – | inconclusive: 7.08 µM [inhibitor, partial curve]
40 | COc1ccc2c(Cl)c(-c3nnc(SCC(N)=O)n3C)sc2c1 | – | inconclusive: 5.62 µM [inhibitor, single point]
41 | O=C(COC(=O)c1n[nH]c2ccccc12)c1cc(F)ccc1F | inactive: 0.813% | –
42 | Cc1ccc(C)c(NC(=S)N2CCC(NC(=O)c3ccccc3)CC2)c1 | inactive: -3.27% | –
43 | O=C(COn1nnc2ccccc21)NCC1CCCCC1 | inactive: 4.29% | –
44 | O=C(CCC1CCCN(C(=O)CCCc2ccccc2)C1)N1CCN(c2ccccn2)CC1 (configuration not stated) | – | inconclusive: 31.6 µM [inhibitor, single point]
45 | O=[N+]([O-])CC(=Nc1ccc(Cl)cc1)N/N=C\c1oc(O)c2ccccc12 | – | inconclusive: 3.98 µM [inhibitor, full curve, poor fit]
46 | COc1ccc(-c2ccc(-c3cc(=O)oc4cc(OC)c(OC)c(OC)c34)cc2)cc1OC | – | inconclusive: 11.2 µM [inhibitor, single point]
47 | Cc1ccc(/C=N/NC(=O)c2cc(-c3ccncc3)nc3ccccc23)o1 | inactive: -11.7% | –
48 | CCOc1ccccc1NC(=S)N(CCCN1CCOCC1)Cc1cn(C)c2ccccc12 | – | inconclusive: 31.6 µM [inhibitor, single point]

Row | Structure (SMILES) | activity change, negative = inhibition | Potency
49 | CCOCCCn1c(C)nc2c(c1=O)c1nc3ccccc3nc1n2-c1ccc(C)cc1 | inactive: 10.3% | –
50 | CS(=O)(=O)c1ccc(Cl)c(NC(=O)COC(=O)CCc2c[nH]c3ccccc23)c1 | inactive: 22% | –
51 | NC(=O)C1CCN(C(=O)c2ccc3c(=O)n(Cc4ccco4)c(SCC(=O)c4ccccc4)nc3c2)CC1 | inactive: -16.8% | –
52 | O=C(NCc1ccc(OC(F)(F)F)cc1)c1cc(-c2ccccc2)nn1CC1CC(c2cccnc2)=NO1 (configuration not stated) | – | inconclusive: 3.55 µM [inhibitor, single point]
53 | COc1ccc2ccccc2c1/C=N/NC(=O)c1ccc(C)nc1 | – | inconclusive: 31.6 µM [inhibitor, single point]
54 | CCN(CC)C(=O)CSc1nc2cc3c(cc2c(=O)n1CCCC(=O)NCc1ccc(OC)cc1)OCO3 | – | inconclusive: 11.2 µM [inhibitor, single point]
55 | COc1ccc(CCNC(=O)CCS(=O)(=O)c2ccc(C)cc2)cc1OC | inactive: 10.3% | –
56 | Oc1ccccc1C1CC(c2cccs2)=NC(c2cccc(Br)c2)N1 (configuration not stated) | inactive: 21.9% | –
57 | O=S(=O)(Cc1cc(Cl)nc(-c2ccccc2)n1)c1ccccc1 | – | inconclusive: 31.6 µM [inhibitor, single point]
58 | Cc1ccccc1C(=O)Nc1ccc(S(=O)(=O)N2CCOCC2)cc1 | – | inconclusive: 35.5 µM [inhibitor, partial curve]
59 | C=CCN(c1nc(C)cc(OC)n1)S(=O)(=O)c1ccc(C)cc1 | – | inconclusive: 31.6 µM [inhibitor, single point]
60 | Brc1ccc(-c2nc(-c3ccncc3)no2)o1 | inactive: 4.48% | –
61 | Cn1c(=O)cc(SCC(=O)N2CCN(Cc3ccc4c(c3)OCO4)CC2)c2ccccc21 | – | inconclusive: 25.1 µM [inhibitor, single point]
62 | COc1ccc(Br)cc1CN(C)C(=O)c1cc(Cl)c2c(c1)OCCO2 | – | inconclusive: 35.5 µM [inhibitor, partial curve, poor fit]
63 | O=C(NC1CCCCC1)N1CCC(c2nc(-c3ccc(S(=O)(=O)N4CCCC4)cc3)no2)CC1 | – | inconclusive: 11.2 µM [inhibitor, single point]
64 | CCC(=O)Nc1nonc1-c1nc2ccccc2n1CCC(C)C | – | inconclusive: 22.4 µM [inhibitor, single point]
65 | CCCN1C2CCCC1CC(NC(=O)c1ccccc1OC)C2 (configuration not stated) | inactive: 1.47% | –
66 | CC(=O)c1cccc(Nc2nc(-c3ccccc3)nc3ccccc23)c1 | – | active: 10 µM
67 | COc1cccc(C(=O)CN2C3=NCCCN3c3ccccc32)c1 | – | inconclusive: 12.6 µM [inhibitor, single point]
68 | CC(=O)Nc1cccc(NC(=O)C(=O)Nc2ccc3c(c2)N(C(=O)C2CC2)CCC3)c1 | – | inconclusive: 10 µM [inhibitor, partial curve, poor fit]
69 | COc1ccccc1NC(=O)CN1CCN(S(=O)(=O)c2ccc(Br)cc2)CC1 | – | inconclusive: 31.6 µM [inhibitor, single point]
70 | CC1CCN(S(=O)(=O)c2ccc(C(=O)N3CCCC(C(F)(F)F)C3)cc2)CC1 (configuration not stated) | – | inconclusive: 20 µM [inhibitor, single point]
71 | COC(=O)C1=C(Nc2ccc(C)cc2)C=C(C)C(C(=O)OC)C1c1cccc(OC)c1 (configuration not stated) | – | inconclusive: 22.4 µM [inhibitor, single point]
72 | CCN(CC)CCNC(=O)CCc1c(C)nc2c(c(C)nn2-c2ccc(C)c(C)c2)c1C | – | active: 7.08 µM
